Screen size: about 48,000 compounds; about 550 (1.1%) were called active. Inconclusive results (about 4%) are left out. No stated cut-off is given here; in the data, active means potency below about 15 µM; inconclusive means mostly about 16 µM to 33 µM; inactive means weaker than that. The list shows a part of the results.
Biological target: Lysosomal acid glucosylceramidase (Homo sapiens) (UniProt P04062)
Assay: Glucocerebrosidase;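 further: the screen sought inhibitors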
Settings: purified enzyme, resorufin glucoside fluorescence (screen aimed at inhibitors), 20 min; series mostly up to 77 µM
Summary of the method: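 Compounds titrated against 0.2 nM normal enzyme, 30 uM resorufin beta-D-glucopyranoside substrate, citrate/phosphate buffer with taurocholate and tween-20, pH 5.9. Reaction ran 20 min at room temperature; fluorescence (Ex 548/Em 600) gave AC50.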
Potency means the concentration at half of the fitted maximal effect.

Sequence of UniProt P04062 (P04062 whole entry, looked up): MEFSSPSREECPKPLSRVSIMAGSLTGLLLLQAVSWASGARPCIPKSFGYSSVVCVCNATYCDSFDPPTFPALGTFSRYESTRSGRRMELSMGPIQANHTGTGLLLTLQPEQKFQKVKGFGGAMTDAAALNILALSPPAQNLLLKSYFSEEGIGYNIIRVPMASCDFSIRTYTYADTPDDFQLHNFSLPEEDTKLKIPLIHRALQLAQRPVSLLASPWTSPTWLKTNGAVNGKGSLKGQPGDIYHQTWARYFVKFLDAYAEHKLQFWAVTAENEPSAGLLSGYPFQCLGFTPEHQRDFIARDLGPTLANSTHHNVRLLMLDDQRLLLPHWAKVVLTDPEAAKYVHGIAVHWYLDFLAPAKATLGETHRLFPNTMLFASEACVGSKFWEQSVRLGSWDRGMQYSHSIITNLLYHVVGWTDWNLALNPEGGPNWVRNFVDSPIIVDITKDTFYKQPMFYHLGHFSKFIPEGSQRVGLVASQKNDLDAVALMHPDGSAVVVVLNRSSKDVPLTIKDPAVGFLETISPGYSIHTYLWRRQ

Potency, inactive:
CCOc1c(C#N)c(C#N)c2nc(C)cc(C)n12 > 76.9 µM, O=C(CSc1ncn(-c2ccccc2)n1)NCc1ccccc1 > 76.9 µM, Cc1nnc(SCCn2c(N3CCCCCC3)nc3c2c(=O)[nH]c(=O)n3C)s1 > 76.9 µM, CC(=O)OCc1c(F)c(F)c(-n2nc(C)cc2C)c(F)c1F > 76.9 µM, CC1CC(C)CN(C(=O)C2CCCN(S(=O)(=O)c3cccc4nonc34)C2)C1 (stereo unspecified) > 76.9 µM, CCCNS(=O)(=O)c1ccc(OCC(=O)Nc2ccccc2F)cc1 > 76.9 µM, CCOC(=O)C1CCN(S(=O)(=O)c2cccc(-c3csc(C)n3)c2)CC1 > 76.9 µM, CNc1nc(C)c(C#N)c(-c2ccccc2)c1C(C)=O > 76.9 µM, CN1C(=O)c2cccc3c(S(=O)(=O)Nc4ccccn4)ccc1c23 > 76.9 µM, CC1CCc2sc3ncnc(N4CCOCC4)c3c2C1 (stereo unspecified) > 76.9 µM, CCOc1ccc(NC(=O)c2nccnc2CO)cc1 > 76.9 µM, O=C(OC1CCOC1=O)c1ccc2ccccc2n1 (stereo unspecified) > 76.9 µM, C(=N\n1cnnc1)/c1ccc(N2CCOCC2)s1 > 76.9 µM, COc1cc(-c2nnc(SCC(=O)Nc3cc(C)on3)n2C)cc(OC)c1O > 76.9 µM, COc1ccc(CCNC(=O)CN(C)S(=O)(=O)c2cccs2)cc1OC > 76.9 µM, CC(C)OCCCn1c(=S)[nH]c2ccc(N3CCOCC3)cc2c1=O > 76.9 µM, COC(=O)Cn1nc(-c2ccccc2)c2ccccc21 > 76.9 µM, CCc1nnc(NC(=O)CSc2nnc(-c3ccc(OC)cc3)n2C)s1 > 76.9 µM, COc1cccc(Cn2cccc(NC(=O)NC3CCCCC3)c2=O)c1 > 76.9 µM, O=C(Cc1cccs1)Nn1c(Cc2cccs2)nc2ccccc2c1=O > 76.9 µM, Cn1cccc1C(=O)NC(=O)COC(=O)c1ccccc1Sc1ccccc1C#N > 76.9 µM, Cc1cc(C)nc(SCNC(=O)c2ccccc2)n1 > 76.9 µM, O=C(Nc1ccccc1)N1CCC(C(=O)N(Cc2ccco2)Cc2cccs2)CC1 > 76.9 µM, Cc1ccc(O)c(NC(=O)c2cccc(NC(=O)c3ccco3)c2)c1 > 76.9 µM, CCOC(=O)c1cc2cc(C)ccc2[nH]1 > 76.9 µM, Cn1c(-c2ccc(Br)o2)nc2cc(Br)ccc21 > 76.9 µM, CCOC(=O)COc1ccc2c(c1)C(=O)CC(C)(c1cccnc1)O2 (stereo unspecified) > 76.9 µM, CCOCCCNC(=O)C1CCN(C(=O)Nc2ccc(C)cc2)CC1 > 76.9 µM, O=C(c1coc(=O)c2ccccc12)N1CCN(Cc2ccccc2)CC1 > 76.9 µM, CCNCCNC(=O)c1c(O)c2ccccc2n(CC)c1=O > 76.9 µM, CCN(CC)C(=O)CSc1nnc([C@H](CCSC)NC(=O)OC(C)(C)C)o1 > 76.9 µM, O=C(CN1C(=O)c2cccc3cccc1c23)N1CCN(c2ccccc2)CC1 > 76.9 µM, Cc1cc(N2CCN(C)CC2)nc2ccc(NC(=O)CCC(=O)NCc3ccco3)cc12, COc1ccc(-c2noc(-c3ccc(Cl)cc3)n2)cc1 > 76.9 µM, NC12CC3CC(C1)CC(CO)(C3)O2 > 76.9 µM, COCCNC(=O)C(c1ccco1)N(C(=O)Cn1nnc2ccccc21)c1ccc(C)cc1C (stereo unspecified) > 76.9 µM, COc1ccc2c(CC(=O)OCC(=O)c3ccc(F)cc3)coc2c1 > 76.9 µM, Cn1c(SCc2ccc(C#N)cc2)nnc1-c1ccccc1 > 76.9 µM, Cc1occc1C(=O)Nc1cc(=O)n(C)c(=O)n1C > 76.9 µM, COc1cc([C@H]2[C@@H]3CCCC[C@]3(O)CCN2CC(=O)Nc2ccc(C)cc2C)ccc1O > 76.9 µM, COc1cccc(NC(=O)C2CCCN2C(=O)OCc2ccccc2)c1 (stereo unspecified), Cc1cc(NS(=O)(=O)c2ccc(OCCNS(C)(=O)=O)cc2)no1 > 76.9 µM, Cc1cccc(-c2c3c(=O)n(C)c(=O)n(C)c3cn2-c2ccccc2O)c1 > 76.9 µM, CC1(C)CC(=O)c2cnc(NCc3ccco3)nc2C1 > 76.9 µM, Cc1nn(Cc2ccccc2)c(C)c1NC(=O)c1cc(-c2cccs2)on1 > 76.9 µM, O=C(OCc1csc(-c2ccccc2)n1)c1cccs1 > 76.9 µM

— PubChem BioAssay AID360 (National Center for Advancing Translational Sciences (NCATS), 2006)
